# Screen size: about 71,000 compounds; about 1,800 (2.5%) were called active. Inconclusive means that the source gave no clear call. Such entries were picked first, then a sample of the others. Calls come from the whole dose curve; as a rule, active = well fitted activation curve with a large enough effect in the signal ratio, with a control signal flat (not every such curve was filed as active); inconclusive = small, poorly fitted or top-dose-only effect, or effect the other way, or a change in a side signal; inactive = flat fitted curve, though single readings scatter; the % refers to the signal ratio. A potency beside an inconclusive call is a rough fit, not a confirmed value.
# Test: Cell signaling CRE-BLA (Fsk stim); for activity change, negative = inhibition: % of control where 0% means no effect
# Settings: CHO CRE-bla reporter (cAMP response element driving beta-lactamase), forskolin EC10, beta-lactamase ratio; activity change, negative = inhibition: at 38.2 µM (top of the series) unless noted
# Description: NIH Molecular Libraries Screening Centers Network [MLSCN]
# NIH Chemical Genomics Center [NCGC]
# Assay Provider: Marshall W. Nirenberg, U.S. National heart lung & blood institute
# Memories persist for different lengths of time, from seconds or minutes to a lifetime. There are two kinds of memory: short-term memory (STM) and long-term memory (LTM). STM lasts for minutes to hours, which maybe mediated by modifications of molecules involved in synaptic functions. LTM lasts for days or longer, and may be due to the formation of new synapses or restructuring of existing synapses. LTM, but not STM, requires gene transcription and synthesis of proteins. CREB (cyclic-AMP Responsive Element Binding Protein) is one of the candidates plays an important role for enhancement of some types of LTM. CREB, a family of transcription factors, regulates the transcription of genes containing cAMP Responsive Elements (CRE). CRE is a nucleotide sequence often found in the promoter regions of genes that are binding sites for CREB.
# Using a beta-lactamase reporter-gene under control of cAMP responsive element, a cell-based assay [CellSensor(TM) CRE-bla CHO developed by Invitrogen Corp.] was used to measure forskolin-induced signaling. Library compounds were measured for their ability to modulate positively or negatively the action of EC10 NKH 477, a water soluble forskolin, on reporter gene activity. Compounds were screened in a titration series in 1536-well format. Positive and negative modulators were identified based on the AC50 values derived from the screening data.
# NCGC Assay Protocol Summary
# 2000 cells/5uL in Opti-MEM medium containing 0.5% dialyzed FBS, 0.1 mM NEAA, 1 mM sodium pyruvate and 10 mM HEPES was dispensed into 1536-well plates and cells were cultured at 37 degrees Celsius overnight. […] And then the plates were incubated at 37 degrees Celsius for 3 hours. 1 uL of CCF4-dye mixture was added to each well. After incubated at room temperature for 2 hours the plates were measured on an EnVision plate reader at Excitation 405nm, Emission1=460nm and Emission 2=530nm. The %Activity was determined from the ratio of 460nm/530nm.
# Keywords: NIH Roadmap, MLSCN, MLSMR, qHTS, NCGC, CRE, beta-lactamase reporter-gene assay.
# Potency is the fitted concentration of half-maximal effect; tags give direction and shape of the fitted curve.
Compound,Potency,"activity change, negative = inhibition"
CCn1c(=O)cc(SCC(=O)Nc2cccnc2)c2ccccc21,"inconclusive: 10 µM [rising, partial curve]",
CCC1(C)Cc2c(sc3nc(SCC(=O)O)[nH]c(=O)c23)CO1 (stereo not drawn),,inactive: -0.627%
O=C(CNC(=O)c1ccco1)OCc1ccc(C(=O)Oc2ccccc2)cc1,,inconclusive: -9.14%
Cc1ccc(C)c([N+](=O)[O-])c1,,inactive: -6.35%
COc1ccc(Cc2ccccc2C(=O)O)c2ccccc12,,inactive: 15.6% [at 7.6 µM]
COc1nc(OC)nc(N2CCC(C(=O)Nc3cccc4ccccc34)CC2)n1,,inactive: -9.61%
O=C(C1CCC1)N1CCc2cc(S(=O)(=O)N3CCCCC3)ccc21,,inconclusive: 19.6%
Cc1c(C#N)c2ccccc2n1CC(=O)N1CCc2ccccc2C1,,inactive: -18.2%
COc1ccc2cc3cc(C(=O)NCCCN4CCOCC4)oc3nc2c1,"inconclusive: 10 µM [rising, single point]",
COc1ccc2nc(SCC(=O)Nc3ccc4c(c3)OCCO4)[nH]c2c1,,inactive: -10%
O=C1NCCCc2c1oc1ccc(O)cc21,"inconclusive: 6.31 µM [falling, partial curve]",
CCOC(=O)N1CCN(Cc2cccs2)CC1,,inconclusive: -2.82% [at 7.6 µM]
COc1ccc2c(c1)c(C(O)CN1CCN(Cc3ccc4c(c3)OCO4)CC1)c(C)n2C (stereo not drawn),,inactive: -6.03%
CCOC(=O)C1=C(C)N=c2s/c(=C\c3ccncc3)c(=O)n2C1c1ccc2c(c1)OCO2 (stereo not drawn),,inconclusive: -11.4%
CCn1cc(C(=O)OCc2cccc(Br)c2)c(=O)c2ccc(C)nc21,"inconclusive: 10 µM [rising, partial curve]",
COc1ccc(OC)c(-c2cc(C(=O)Nc3c(C)nn(Cc4ccccc4Cl)c3C)no2)c1,active: 2.51 µM,
Cc1cccc(-c2nsc(SCC(=O)Nc3nccs3)n2)c1,,inconclusive: -5.09%
CCOC(=O)c1c(C)oc2c(F)c(F)c(F)c(F)c2c1=O,,inconclusive: -4.53%
CCC(=O)c1ccccc1OCCCn1cncn1,,inactive: 26.4%
CCOC(=O)N1CCC(NC(=O)c2cc3c(-c4ccc(OC)c(OC)c4)nn(C)c3s2)CC1,"inconclusive: 5.01 µM [rising, single point]",
O=C(N1CCOCC1)N1CCN(c2nc(-c3ccc(F)cc3)cs2)CC1,,inconclusive: 11.2%
Cc1cc(N)c2ccccc2[n+]1CCCCCCCCCC[n+]1c(C)cc(N)c2ccccc21,,inconclusive: -14.6%

Compound,Potency,"activity change, negative = inhibition"
CC(NO)C(C)(C)NO (stereo not drawn),,inconclusive: 15%
CS(=O)(=O)Nc1ccc(C(=O)NCc2ccc3c(c2)OCO3)cc1,,inconclusive: -2.13%
COc1ccc2c(C)nc(Nc3nc(C)cc(=O)[nH]3)nc2c1,active: 5.01 µM,
O=C(CSc1nc2ccccc2c(=O)n1Cc1ccco1)NCc1ccccc1,,inconclusive: 26.4%
O=C1C(C=NCCN2CCOCC2)=C(O)c2ccccc21,,inconclusive: -1% [at 7.6 µM]
O=C(N1CCOCC1)N(Cc1ccco1)CC1CCCO1 (stereo not drawn),,inconclusive: -6.75%
COc1ccc(OC)c(Nc2cc(-c3ccccc3)nc(N)n2)c1,"inconclusive: 3.16 µM [rising, single point]",
O=C(CSc1nnc(COc2ccccc2)n1Cc1ccco1)NCc1ccco1,,inconclusive: -16.8%
CCn1c2ccccc2c2cc(NC(=O)Cc3ccc(S(=O)(=O)N4CCOCC4)s3)ccc21,,inconclusive: -7.36%
CN1CCN(CCCNC(=O)c2cc3c(=O)n(C)c4ccccc4c3s2)CC1,"inconclusive: 10 µM [rising, partial curve]",
Cc1ccc(CNc2ccc3c(c2)OCO3)cc1,,inconclusive: -28.3%
CC1CCCC(C)N1C(=O)CSc1nnc(-c2c[nH]c3ccccc23)o1 (stereo not drawn),,inconclusive: 17%
CCN(CC)S(=O)(=O)c1ccc(C(=O)OC2CCCCC2CN(C)C)cc1 (stereo not drawn),,inconclusive: 0.984%
c1ccc2c(c1)c1cccc3ccc4cccc2c4c31,,inactive: 5.14%
Cc1c(C(C)O)nnn1-c1nonc1N (stereo not drawn),"inconclusive: 0.00316 µM [rising, full curve, poor fit]",
O=C1c2ccccc2C(=O)N1OCCOCCOCCON1C(=O)c2ccccc2C1=O,,inconclusive: 5.21%
COc1ccc(NS(=O)(=O)c2ccc(NS(C)(=O)=O)cc2)cc1,"inconclusive: 0.0631 µM [rising, full curve, poor fit]",
COc1ccc(OC)c(Nc2nc(-c3cccs3)cs2)c1,"inconclusive: 10 µM [rising, single point]",
Cc1nnc(NC(=O)c2ccco2)s1,,inactive: -2.72%
CCC(C)Sc1nc2c(c(=O)[nH]c(=O)n2C)n1C (stereo not drawn),"inconclusive: 10 µM [rising, partial curve]",
O=c1[nH]c(C2CCCN(S(=O)(=O)c3ccccc3)C2)nc2c1nnn2Cc1ccccc1 (stereo not drawn),"inconclusive: 10 µM [rising, single point]",

# Source: PubChem BioAssay AID662 (National Center for Advancing Translational Sciences (NCATS), 2007)
